Assay results published in the supplement of paper PMC11741623.
The other results are listed elsewhere or left out. Interaction screen of human proteins with wild-type SARS-CoV-2 proteins by split-DHFR complementation in yeast, 1 µg/mL methotrexate. Value = fitness of the pair (three or more lineages) minus that of the viral protein without a human partner, on a scale set by negative (0) and fused positive (1) controls, mean of up to three cultures; higher = more likely to interact. Active = false discovery rate below 0.05 (one-sided t-test) in at least one culture. Nearly all pairs are not hits, and differences among them are mostly noise (correlation between cultures about 0.3); most hits were seen in one culture only. Human sequences are the Swiss-Prot entries looked up by gene name; the clone may be another isoform. NSP2 values were corrected by the authors for a growth advantage. Listed are human proteins with a hit and a random twelfth of the others.

What was measured:
Assay in all cases: yeast fitness gain over the viral ORF with no human partner (scaled fitness); higher = more likely to interact
[1] = tested on: SARS-CoV-2 E
Protocol: (§1)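 Split mouse DHFR complementation in pooled diploid yeast: human ORFeome clones carry one fragment and viral ORFs the other; barcoded lineages compete in 1 µg/mL methotrexate and fitness is read by barcode sequencing in up to three cultures.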

[2] = tested on: SARS-CoV-2 M
Protocol: as §1

[3] = tested on: SARS-CoV-2 NSP10
Protocol: as §1

[4] = tested on: SARS-CoV-2 NSP13
Protocol: as §1

[5] = tested on: SARS-CoV-2 NSP14
Protocol: as §1

[6] = tested on: SARS-CoV-2 NSP15
Protocol: as §1

[7] = tested on: SARS-CoV-2 NSP16
Protocol: as §1

[8] = tested on: SARS-CoV-2 NSP1
Protocol: as §1

[9] = tested on: SARS-CoV-2 NSP2
Protocol: as §1

[10] = tested on: SARS-CoV-2 NSP4
Protocol: as §1

[11] = tested on: SARS-CoV-2 NSP5
Protocol: as §1

[12] = tested on: SARS-CoV-2 NSP6
Protocol: as §1

[13] = tested on: SARS-CoV-2 NSP7
Protocol: as §1

[14] = tested on: SARS-CoV-2 NSP8
Protocol: as §1

[15] = tested on: SARS-CoV-2 NSP9
Protocol: as §1

[16] = tested on: SARS-CoV-2 N
Protocol: as §1

[17] = tested on: SARS-CoV-2 ORF10
Protocol: as §1

[18] = tested on: SARS-CoV-2 ORF3A
Protocol: as §1

[19] = tested on: SARS-CoV-2 ORF3B
Protocol: as §1

[20] = tested on: SARS-CoV-2 ORF6
Protocol: as §1

[21] = tested on: SARS-CoV-2 ORF7A
Protocol: as §1

[22] = tested on: SARS-CoV-2 ORF7B
Protocol: as §1

[23] = tested on: SARS-CoV-2 ORF8
Protocol: as §1

[24] = tested on: SARS-CoV-2 S
Protocol: as §1

Measured: yeast fitness gain

NDRG4, Q9ULP0
inactive: [1] 0.0249 | [2] -0.0582 | [3] 0.015 | [4] 0.0465 | [5] 0.0602 | [6] 0.05 | [7] 0.0498 | [8] -0.0244 | [9] -0.0475 | [10] 0.103 | [11] -0.00183 | [12] 0.0124 | [13] -0.000215 | [14] -0.00277 | [15] -0.0327 | [16] -0.0357 | [17] 0.0133 | [18] 0.0449 | [19] 0.0531 | [20] 0.0163 | [21] -0.0209 | [22] -0.00928 | [23] 0.0453 | [24] 0.0245

PRR14L, Q5THK1
inactive: [1] -0.128 | [2] -0.0202 | [3] 0.00455 | [4] -0.0404 | [5] 0.0317 | [6] -0.0229 | [7] -0.0745 | [8] 0.0217 | [9] -0.117 | [10] -0.0336 | [11] -0.0891 | [12] 0.00808 | [13] -0.0461 | [14] -0.0264 | [15] -0.0575 | [16] -0.0158 | [17] -0.0481 | [19] -0.00477 | [20] 0.0374 | [21] -0.0112 | [22] -0.0685 | [23] -0.00466 | [24] 0.0166

TIMM50, Q3ZCQ8
inactive: [1] 0.141 | [2] 0.0601 | [3] 0.0102 | [4] -0.0038 | [5] -0.242 | [6] -0.0243 | [7] 0.0486 | [8] -0.0235 | [9] -0.0841 | [10] 0.0197 | [11] 0.045 | [13] 0.000258 | [14] 0.0201 | [15] 0.0599 | [16] -0.025 | [17] 0.0189 | [19] 0.0601 | [20] -0.05 | [21] -0.0414 | [22] 0.0235 | [23] 0.0135 | [24] 0.0396

RALYL, Q86SE5
active: [9] 0.623
inactive: [1] 0.0109 | [3] -0.163 | [4] -0.0505 | [6] 0.0176 | [11] -0.0153 | [12] -0.075 | [14] -0.514 | [17] -0.15 | [18] -0.0245 | [19] 0.0647 | [20] -0.0245 | [21] -0.192 | [22] -0.171 | [23] -0.188 | [24] -0.0692

FAM136A, Q96C01
inactive: [1] 0.0594 | [2] 0.0637 | [3] 0.00537 | [4] -0.0449 | [5] 0.0638 | [6] 0.097 | [7] -0.0329 | [8] -0.00677 | [10] -0.123 | [11] -0.0325 | [12] 0.0641 | [13] -0.0635 | [14] -0.000434 | [15] 0.189 | [17] 0.0384 | [18] -1.2e-05 | [19] 0.018 | [20] 0.0411 | [21] 0.00474 | [22] 0.0159 | [23] 0.00334 | [24] 0.0153
active: [9] 0.148

EGR3, Q06889
inactive: [5] -0.261
